# According to the BET-seq Pho4 binding data (Le et al. 2018):
# Some of the results follow. The energies were worked out here from pooled read counts, against the library average; single values are noisy.
# Molecular target: T1, Pho4 (S. cerevisiae) (UniProt P07270)
# T1 sequence: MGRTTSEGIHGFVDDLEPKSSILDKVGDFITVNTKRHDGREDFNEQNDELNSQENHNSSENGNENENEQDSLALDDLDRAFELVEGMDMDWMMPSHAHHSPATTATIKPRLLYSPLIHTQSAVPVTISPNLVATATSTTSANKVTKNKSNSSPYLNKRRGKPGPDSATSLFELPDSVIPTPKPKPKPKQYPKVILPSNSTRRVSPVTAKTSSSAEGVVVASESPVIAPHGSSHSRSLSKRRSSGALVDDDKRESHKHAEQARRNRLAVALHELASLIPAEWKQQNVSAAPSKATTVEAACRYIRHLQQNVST
# Test: relative binding free energy (BET-seq); higher = weaker binding
# Conditions: reference: library average
row,Sequence,relative binding free energy [kcal/mol]
1,AAAATCACGTGGTGGT,0.04
2,GAGATCACGTGATTTG,0.31
3,TTGTACACGTGAAGAA,0.26
4,TAAGTCACGTGTAGCG,0.08
5,TTTCACACGTGTTGGA,0.12
6,TAATTCACGTGCTGTG,0.09
7,TTTGTCACGTGCTGAA,-0.06
8,AGATGCACGTGGTGTA,-0.09
9,TGGGTCACGTGTCGGT,0.05
10,GTGGGCACGTGCAGGT,-0.02
11,GGGAACACGTGGCGTG,-0.19
12,ATGAGCACGTGAGTCT,0.25
13,ACGTGCACGTGTCGTG,-0.16
14,ATTGACACGTGTCAGG,0.05
15,TAGGACACGTGAGATG,0.22
16,AGCAGCACGTGGCGGT,-0.08
17,TGGGCCACGTGAGGAG,-0.02
18,GATTGCACGTGGTGGC,-0.04
19,TTCTTCACGTGGAGCT,0.4
20,TCGTTCACGTGGAAAA,0.48
21,ATGGCCACGTGTGAGT,0.06
22,GATCGCACGTGGTATT,-0.02
23,ATGTACACGTGTAGGT,0.06
24,CTATACACGTGGGTGA,-0.13
25,GTACTCACGTGTGTGA,0.27
26,AGGAGCACGTGTTTGG,-0.11

row,Sequence,relative binding free energy [kcal/mol]
1,TCAGGCACGTGGAGGG,-0.2
2,GTGGGCACGTGTACAT,-0.04
3,CGTTTCACGTGGTGTG,0.21
4,GTTGGCACGTGGTTCC,0
5,TGTTTCACGTGGCTCT,0.27
6,AGGCACACGTGAGTGA,0.35
7,CGTATCACGTGTGTGC,0.06
8,TATTCCACGTGTGGAG,0.09
9,CGGGACACGTGGGATG,-0.12
10,GAAATCACGTGAGGTT,0.51
11,CGATGCACGTGGTGGC,-0.03
12,TTTGTCACGTGTCGAA,0.1
13,ATAGGCACGTGGTCGT,-0.25
14,AAGGACACGTGTTGTA,0.04
15,TGACTCACGTGGGTTC,0.15
16,GTAGACACGTGGATGT,0.07
17,CATAGCACGTGGGGAG,-0.24
18,GGTATCACGTGAGAGT,0.51
19,TCTTTCACGTGGGGAT,0.17
20,TAAGTCACGTGGTCGG,-0.21
21,GAACTCACGTGTGGTG,0.19
22,CAATTCACGTGGTTGG,0.18
23,TTTTTCACGTGTAACG,0.35
24,TTTAGCACGTGTGTTG,0.02
25,CATGTCACGTGGCAGT,0.07
26,AGTCACACGTGTAGGT,0.03

row,Sequence,relative binding free energy [kcal/mol]
1,TTGCACACGTGGATGG,-0.14
2,CTTGACACGTGGGGGG,-0.2
3,GAGTGCACGTGATGTC,0.34
4,GTTATCACGTGGCGTT,0.16
5,AGTAGCACGTGAACGT,0.23
6,ATGCGCACGTGTTTGT,-0.2
7,TGCAACACGTGGTTTA,0.16
8,GAGTACACGTGCTGTG,0.05
9,TGGTGCACGTGCATAA,-0.12
10,GTAGTCACGTGTGTCT,0.19
11,AATGACACGTGTATGT,-0.11
12,GGTGTCACGTGACGGG,0.28
13,TGGGTCACGTGTGGTA,0.23
14,CGTGGCACGTGGAGTT,0
15,TGGTGCACGTGAGACA,0.21
16,TTCAGCACGTGAGAGT,0.23
17,ACTTTCACGTGTTTAT,0.25
18,TTGCGCACGTGAATGG,0.22
19,TAGGTCACGTGAACGT,0.2
20,AGTGCCACGTGTTTAT,-0.1
21,GGTTTCACGTGGAACT,0.33
22,AAGGGCACGTGATAAT,0.03
23,TTCAACACGTGGGGTG,-0.18
24,GTTCGCACGTGATGGA,0.18
25,GTTGTCACGTGTTAAG,0.22
26,GGCTTCACGTGCTTTG,0.21

row,Sequence,relative binding free energy [kcal/mol]
1,TGATTCACGTGGCAAG,0.29
2,AAGAACACGTGGGTTT,-0.08
3,AGCAACACGTGTGGAG,0.18
4,TCGGGCACGTGACGTG,0.03
5,GTTAGCACGTGTCTGA,-0.02
6,TTCGGCACGTGGGCAG,-0.33
7,GAAGCCACGTGTTGGT,0.1
8,GGTGACACGTGATAAT,0.15
9,GAAGGCACGTGTAGAG,0.02
10,GATGTCACGTGGATCT,0.16
11,TCTTGCACGTGGTCGG,-0.19
12,TGGGTCACGTGATACT,0.24
13,TTGCTCACGTGTGTTT,0.16
14,GTAGCCACGTGGGTTA,-0.14
15,AATTGCACGTGTTGAC,0.11
16,TTTATCACGTGTGGAA,0.13
17,CGATGCACGTGCGGTG,-0.13
18,TAGGACACGTGTAGGA,0.12
19,TGCGTCACGTGGCTGA,-0.02
20,TAGCGCACGTGATGTA,0.05
21,GCTTGCACGTGATGGA,0.08
22,CAGGGCACGTGCAGTG,-0.17
23,GGTGACACGTGTGCGT,0.01
24,TTGGTCACGTGCTAGG,0
25,TCATTCACGTGAGTGT,0.35
26,ATTTGCACGTGTGCGT,-0.07

row,Sequence,relative binding free energy [kcal/mol]
1,GTCGGCACGTGGTCGT,-0.14
2,AAGGTCACGTGATTAA,0.29
3,TCGGTCACGTGGTACG,-0.06
4,GTCGGCACGTGTTATT,0.06
5,GTATGCACGTGTGGAC,0.18
6,TCTGTCACGTGGTGCA,0.01
7,GGCGACACGTGGAGGT,0.04
8,AGTTTCACGTGGATAG,0.24
9,GTTGGCACGTGAAGGT,0.11
10,GTATTCACGTGTAGAT,0.35
11,TATATCACGTGGGCGC,0.06
12,TGCCGCACGTGGGTGT,-0.25
13,AGAGGCACGTGTGTCT,0.06
14,TCATTCACGTGGTCAT,0.3
15,TTGAGCACGTGAGCTT,0.12
16,TTCGTCACGTGTTGGT,0.06
17,TTATCCACGTGGGTAA,-0.03
18,TTGAGCACGTGTTATA,-0.07
19,GGTAGCACGTGGGTAA,-0.09
20,CTTTTCACGTGTGATA,0.36
21,ATGGGCACGTGGTGTT,-0.13
22,AGGTTCACGTGCTGCT,0.23
23,AGCTGCACGTGGGGGG,-0.12
24,TGGGGCACGTGGTTCA,-0.1
25,GTATTCACGTGGTTGG,0.26
26,GGTCCCACGTGTGTGG,-0.12

row,Sequence,relative binding free energy [kcal/mol]
1,TCGTGCACGTGGAAGG,0.03
2,GAGGCCACGTGGTGGA,-0.12
3,TTGATCACGTGTTAAG,0.19
4,TACTACACGTGAGGGG,0.15
5,TATTTCACGTGCGTGT,0.21
6,GTGTACACGTGAGGCT,0.08
7,GACTTCACGTGAGGTT,0.44
8,TCTGACACGTGTGAGT,0.07
9,ATTGGCACGTGTTGGT,0.05
10,GATCGCACGTGGGGTT,-0.06
11,TTGTGCACGTGGCGAA,-0.1
12,ACTGTCACGTGATGGT,0.28
13,GCGGCCACGTGGTGTT,-0.11
14,GGTGCCACGTGGATTA,0.06
15,TGTTCCACGTGCGAGG,0.11
16,GTGGACACGTGTGGCC,0.22
17,AGTGCCACGTGATGGT,-0.06
18,TTTGGCACGTGAAAAA,0.2
19,TGTAGCACGTGTAGGA,-0.07
20,TAGTACACGTGAATAT,0.29
21,TTTGGCACGTGAAGCT,0.2
22,TGGGTCACGTGGGAGT,0
23,TGTGTCACGTGTGCAT,-0.04
24,GGTAGCACGTGGAGAG,-0.09
25,CAGGTCACGTGGCCGG,0.1
26,TGAGTCACGTGGCTGT,0.05

row,Sequence,relative binding free energy [kcal/mol]
1,AATAGCACGTGGATTG,0.05
2,TTATGCACGTGGAATG,0.09
3,GCGCGCACGTGTTGTT,-0.05
4,GCTGGCACGTGGTTGT,-0.14
5,TGGCACACGTGTGTCG,0.05
6,GGATGCACGTGGTTTG,0.03
7,AGATTCACGTGCAGGG,0.19
8,GGTGGCACGTGGTCGA,-0.19
9,AGATGCACGTGATGGC,0.23
10,GTTATCACGTGTAGAG,0.32
11,TAGGTCACGTGTACTG,0.17
12,GTGATCACGTGGTCGT,0.18
13,GCTATCACGTGTGTAT,0.31
14,TTTTGCACGTGGTGTA,-0.11
15,GTTATCACGTGTACGG,0.1
16,TATTGCACGTGTCAAT,-0.04
17,AATTACACGTGTTTTA,0.05
18,TTATCCACGTGTGGTA,-0.04
19,TTTCACACGTGTGAAT,0.16
20,AGGGGCACGTGGATAC,-0.19
21,ATGTGCACGTGTATCT,-0.06
22,AGAAGCACGTGAGGGC,0.18
23,TTGTGCACGTGTGTGT,0.01
24,GTTAGCACGTGGGGTT,-0.12
25,GGGGGCACGTGGTTGA,-0.04
26,GGAGGCACGTGAAGTG,0.21

row,Sequence,relative binding free energy [kcal/mol]
1,CGGGTCACGTGTCTAG,0.15
2,GGTTACACGTGAGTCA,0.27
3,GTGTACACGTGCGTGA,-0.04
4,GTGTTCACGTGGAGCA,0.27
5,GTTGTCACGTGTGAGC,0.33
6,ATATGCACGTGGCGAT,-0.18
7,GTATTCACGTGGTGGG,0.26
8,TTAAGCACGTGAGGGG,0.19
9,ATAGACACGTGTATGG,-0.03
10,CGGGTCACGTGGGTAT,0.02
11,TTCATCACGTGTTAGA,0.33
12,AATCTCACGTGGGTTT,0.13
13,TTCATCACGTGCGGGG,0.22
14,GTGCACACGTGTGTAG,-0.02
15,TAATACACGTGGTTAC,0.19
16,CTGTTCACGTGCAAGG,0.4
17,ATATTCACGTGGGGTC,0.07
18,TAATTCACGTGCTGAT,0.22
19,GGCGTCACGTGTTGAT,0.2
20,GAAAGCACGTGGCGGT,-0.08
21,TCTCACACGTGTGGTG,0.04
22,GTTATCACGTGGACGG,0.19
23,AGGCCCACGTGGGGGG,-0.27
24,TGATACACGTGGACGG,0.06
25,TGCTTCACGTGGGGCG,0.21
26,CGGATCACGTGGTTAT,0.13

row,Sequence,relative binding free energy [kcal/mol]
1,AGGTCCACGTGAGAGT,0.17
2,CCCGGCACGTGGTGGG,-0.15
3,GGAAGCACGTGGTAAT,-0.1
4,CCAGGCACGTGGGTTG,-0.21
5,TGTGACACGTGTCAGG,-0.05
6,ACGGCCACGTGAGGTG,0.09
7,TAGTCCACGTGTTGAT,0.07
8,GTGAACACGTGGGGGT,-0.14
9,GGAGTCACGTGCGTAA,0.14
10,GTGCTCACGTGGGAAT,0.3
11,CTAGTCACGTGTGATG,0.13
12,CAATGCACGTGGGTGA,0
13,TTACGCACGTGTCGGG,-0.1
14,TGTGACACGTGGGAAG,-0.08
15,GGGCGCACGTGGGTAA,-0.19
16,ATAATCACGTGAGTGA,0.18
17,GTTTTCACGTGGCTGA,0.27
18,GGCTTCACGTGAAGCG,0.43
19,AGCGACACGTGTGTGG,0.06
20,AGGGTCACGTGATGAT,0.16
21,ATATGCACGTGATTGG,0.14
22,TGGTCCACGTGTTGTA,0.08
